Paper PMC4336329 (PLoS ONE, 2015)
The campaign covered roughly 310,000 compounds. About 2,200 (0.71%) showed an effect of 50% or more. The effect is printed as a negative number. The list shows a part of the results.

target: human ether-à-go-go-related gene (hERG) potassium channel (human, UniProt Q12809); experiment: primary screen, population patch clamp on CHO cells stably expressing hERG
Sequence (Q12809 whole entry, looked up): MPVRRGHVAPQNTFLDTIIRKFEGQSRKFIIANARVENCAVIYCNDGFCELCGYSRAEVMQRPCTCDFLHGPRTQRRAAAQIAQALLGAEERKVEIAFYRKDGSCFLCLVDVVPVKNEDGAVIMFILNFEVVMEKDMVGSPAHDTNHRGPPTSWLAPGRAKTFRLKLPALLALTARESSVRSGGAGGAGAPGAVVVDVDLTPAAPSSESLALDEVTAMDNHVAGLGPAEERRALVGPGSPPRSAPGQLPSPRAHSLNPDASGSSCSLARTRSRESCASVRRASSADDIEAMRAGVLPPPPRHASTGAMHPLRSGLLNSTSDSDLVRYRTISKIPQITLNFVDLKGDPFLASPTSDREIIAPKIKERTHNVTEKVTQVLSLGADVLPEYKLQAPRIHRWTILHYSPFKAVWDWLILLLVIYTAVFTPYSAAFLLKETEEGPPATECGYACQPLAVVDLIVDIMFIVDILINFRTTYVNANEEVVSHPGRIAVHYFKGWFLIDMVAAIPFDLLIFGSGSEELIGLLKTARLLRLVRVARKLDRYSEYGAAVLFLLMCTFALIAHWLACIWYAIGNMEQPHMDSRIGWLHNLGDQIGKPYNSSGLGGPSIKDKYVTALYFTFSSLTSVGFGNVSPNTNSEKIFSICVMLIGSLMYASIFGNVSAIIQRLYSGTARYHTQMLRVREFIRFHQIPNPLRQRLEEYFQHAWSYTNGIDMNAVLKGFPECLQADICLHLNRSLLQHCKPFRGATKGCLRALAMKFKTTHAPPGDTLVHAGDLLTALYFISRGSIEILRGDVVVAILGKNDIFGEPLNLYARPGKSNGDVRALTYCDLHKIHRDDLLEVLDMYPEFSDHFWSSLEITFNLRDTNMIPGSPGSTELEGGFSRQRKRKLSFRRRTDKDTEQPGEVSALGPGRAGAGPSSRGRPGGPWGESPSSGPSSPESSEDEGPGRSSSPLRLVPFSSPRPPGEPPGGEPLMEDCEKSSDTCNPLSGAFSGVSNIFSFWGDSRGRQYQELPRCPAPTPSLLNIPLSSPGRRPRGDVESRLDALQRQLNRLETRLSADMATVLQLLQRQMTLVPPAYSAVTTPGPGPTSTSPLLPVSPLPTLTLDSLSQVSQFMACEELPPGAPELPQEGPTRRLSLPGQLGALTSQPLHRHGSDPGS

SMILES | hERG current change (%, negative = inhibition) at 1uM [%]
Cc1occc1C(=O)N1CCN(C(=O)C2CCCO2)CC1 (stereo not drawn) | -17.5
Cc1ccc(O)c(NC(=S)NC(=O)CC(C)C)c1 | 2.82
Cc1cccc(-c2nc3c(c(SCC(=O)N4CCCC4)n2)COC(C)(C)C3)c1 | 6.51
O=C(c1ccc(COc2ccc(Cl)cc2Cl)o1)N1CCCC1 | 9.08
O=C(NNc1ccc([N+](=O)[O-])cc1)C1CC2CCCC(C1)C2=O (stereo not drawn) | -4.1
CCOP(=O)(OCC)C(CC)N1CCOCC1 (stereo not drawn) | 14.5
COCCCn1c(SCC(=O)Nc2oc(C)c3c(C)n[nH]c(=O)c23)nc2sc3c(c2c1=O)CCC3 | 2.88
CC(C)/C=C1\CCc2c([nH]c3ccccc23)C1=O | 4.46
COc1ccc(-n2cnnc2SCc2ncc(-c3ccccc3)o2)cc1 | -5.42
Cc1cc(C)cc(-n2c(C)cc(/C=C3\C(=O)NC(=O)N(C)C3=O)c2C)c1 | -4.29
Cc1cccc(C(=O)N2CCCC(N3CCN(c4ccc(F)cc4)CC3)C2)n1 (stereo not drawn) | 20.8
O=C(COC(=O)C1CC2C=CC1C2)Nc1cccc(S(=O)(=O)N2CCCCC2)c1 (stereo not drawn) | 12
COc1ccc(C2=NN(C(N)=S)C(c3ccco3)C2)cc1 (stereo not drawn) | 12.4
CCOC(=O)c1ccc(NC(=O)C2CCN(S(=O)(=O)c3ccccc3)CC2)cc1 | -2.48
Cc1[nH]n(-c2ccccc2)c(=O)c1N=Nc1ccccc1C(=O)N1CCOCC1 | -0.376
CC(C)C(=O)Nc1cccc(-c2nc3ncccc3o2)c1 | 15.9
CN(Cc1ccccc1)C(=O)c1nc2ccccn2c1CN1CCCC1c1nccs1 (stereo not drawn) | 0.748
CN(C(=O)c1ccc2c(c1)CCN2S(C)(=O)=O)c1ccccc1 | 8.99
O=C(Nc1ccc(O)c(-c2nc3ccccc3o2)c1)C1(c2ccccc2)CCCC1 | 18.9
COc1ccc2c(c1)c(C(O)CN1CCN(Cc3ccc4c(c3)OCO4)CC1)c(C)n2C (stereo not drawn) | 12.5
CCOc1ccc(C2C(C#N)=C(N)Oc3n[nH]c(C)c32)cc1OC(=O)C1CC1 (stereo not drawn) | 13.7
Br.C=CCN1C(c2cccc(C(F)(F)F)c2)=CS/C1=C(/C#N)c1nnc(N2CCOCC2)n1-c1ccccc1 | 6.73
O=C(Cc1ccccc1)Nc1cccnc1 | 8.29
CCSC1=NCCN1C(=O)Cc1ccc(-c2ccccc2)cc1 | 12
